Read counts are not given, so values of variants with three or more changes are uncertain.
B1: CPEB3 Ribozyme (parent)
chain: UAACAGGGGGCCACAGCAGAAGCGUUCACGUCGCAGCCCCUGUCAGAUUCUGGUGAAUCUGCGAAUUCUGCUGUAUAUCUC

Variants of: B1
Test: self-cleavage, relative activity (ratio to wild type); higher = more cleavage; in vitro, sequencing
In short: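 Relative activity was defined as the cleaved/total read fraction for a variant divided by the same fraction for the unmutated ribozyme. CPEB3 self-cleaving ribozyme libraries were made by rounds of error-prone PCR, barcoded, and transcribed in vitro with T7 RNA polymerase for 5 hours at 37°C, and cleavage ran through transcription plus a 15 min DNase I step before EDTA. Illumina sequencing of template-switched reverse transcripts gave the reads, and DNA sequencing mapped the barcodes. Averages come from three batches, using variants with at least 5 reads.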

Variant | self-cleavage
UAACAGGGGGCCACAGCAGAAGCGUUCACGUCGGAGCCCCCGUCAGAUUCUGGUGAAUCUGCGAAUUCUGCCGUAUAUCUC [C34G U41C U72C] | 0.06
UAACAGGGGGCCACAGCAGAAGCGUUCACGUCGGAGCCCCUGACAGACUCUGGUGAAUCUGCGGAUCCUGCUGUAUAUCUC [C34G U43A U48C A64G U67C] | 0.11
UAACAGGGGGCCACAGCAGAAGCGUUCACGUCGGAGCCCCUGCCAGAUUCCGGUGAAUCAGCGAAUUCCGCUGUAUAUCUC [C34G U43C U51C U60A U69C] | 0.16
UAACAGGGGGCCACAGCAGAAGCGUUCACGUCGGAGCCCCUGGCAGAUUCUGGUGAUUCUGCGAAUUCUGCUGUAUAUCUC [C34G U43G A57U] | 0.09
UAACAGGGGGCCACAGCAGAAGCGUUCACGUCGGAGCCCCUGUCAGAUUCCGGUGAAUCUGCGAAUUCUGCUGUAUAUCUA [C34G U51C C81A] | 0.18
UAACAGGGGGCCACAGCAGAAGCGUUCACGUCGGAGCCCCUGUCAGAUUCCGGUGAAUCUGCGAAUUCUGCCGUAUAUCCC [C34G U51C U72C U80C] | 0.09
UAACAGGGGGCCACAGCAGAAGCGUUCACGUCGGAGCCCCUGUCAGAUUCUGGCGGCUCUGCGAAUUCUGCUGUAUAUCUC [C34G U54C A56G A57C] | 0.05
UAACAGGGGGCCACAGCAGAAGCGUUCACGUCGGAGCCCCUGUCAGAUUCUGGUGAAUCUGCGAAUUCUGCUGUACGUCUC [C34G U76C A77G] | 0.07
UAACAGGGGGCCACAGCAGAAGCGUUCACGUCGGAGCCCCUGUCAGAUUCUGGUGAAUCUGCGAAUUCUGCUGUAUACUAC [C34G U78C C79U U80A] | 0.11
UAACAGGGGGCCACAGCAGAAGCGUUCACGUCGUGGCUCCUGUCAGAUUCUGGUGAAUCUGCGAAUUCUGCUGUAUAUCUC [C34U A35G C38U] | 0.43
UAACAGGGGGCCACAGCAGAAGCGUUCACGUCGUGGCCCCUGUCAGAUUCUGGUGAAUCUGCGAAUUCUGCUGUAUAUCCC [C34U A35G U80C] | 0.46
UAACAGGGGGCCACAGCAGAAGCGUUCACGUCGUUGCCCCUGUCGGAUUCUGGUGAACCUGCAAAUUCUGAUGUAUAUCUC [C34U A35U A45G U58C G63A C71A] | 0.05
UAACAGGGGGCCACAGCAGAAGCGUUCACGUCGUAGCCCCUGUCCGAUUCUGGUGAAUCUGCGAAUACUGCUGUAUAUCUC [C34U A45C U67A] | 0.22
UAACAGGGGGCCACAGCAGAAGCGUUCACGUCGUAGCCCCUGUCAGAUUCUGGUGAUUCUGCGAAUUCUGCUGUACAUCUC [C34U A57U U76C] | 0.27
UAACAGGGGGCCACAGCAGAAGCGUUCACGUCGUAGCCCCUGUCAGAUUCUGGUGAAUCUGCGGAUUCUGCAGUAUAUCUC [C34U A64G U72A] | 0.19
UAACAGGGGGCCACAGCAGAAGCGUUCACGUCGUAGCUCCUGUCGGAUUCUGGCGAAUCUGCGAAUUCCGCUGUAUAUCUC [C34U C38U A45G U54C U69C] | 0.14
UAACAGGGGGCCACAGCAGAAGCGUUCACGUCGUAGCCCCUGUUAGAUUCAGGUGAAUCCGCGAAUUCUGCUGUAUAACUC [C34U C44U U51A U60C U78A] | 0.06

Variant | self-cleavage
UAACAGGGGGCCACAGCAGAAGCGUUCACGUCGUAGCCCCUGUCAGAUUCUGGUGAAUCUGCGAAUUCUACCGUAUAUCUC [C34U G70A U72C] | 0.12
UAACAGGGGGCCACAGCAGAAGCGUUCACGUCGUAGCCCCAGUCAGAUUCUGGUGAAUAUGCGAAUUCUGCUGUAUAUCUC [C34U U41A C59A] | 0.14
UAACAGGGGGCCACAGCAGAAGCGUUCACGUCGUAGCCCCAGUCAGACUCUGGUGAAUCUGUGAAUUCUGCUGUAUAUCUC [C34U U41A U48C C62U] | 0.15
UAACAGGGGGCCACAGCAGAAGCGUUCACGUCGUAGCCCCAGUCAGAUCCUGAUGAAUCUGCGGACACUGCUGUAUAUCUC [C34U U41A U49C G53A A64G U66C U67A] | 0.02
UAACAGGGGGCCACAGCAGAAGCGUUCACGUCGUAGCCCCAGUCAGAUUCUGGUGAAUCAGCGAAUUCUGCUGUAUAUCUC [C34U U41A U60A] | 0.21
UAACAGGGGGCCACAGCAGAAGCGUUCACGUCGUAGCCCCCGUCGGAUUCUGGUGUAUCUGCGAAUUCUGCUGUAUAUCUC [C34U U41C A45G A56U] | 0.13
UAACAGGGGGCCACAGCAGAAGCGUUCACGUCGUAGCCCCUGACAGAUUCUGGUGGAUCUGCGGAUUCUGCUGUAUAUCUC [C34U U43A A56G A64G] | 0.26
UAACAGGGGGCCACAGCAGAAGCGUUCACGUCGUAGCCCCUGACAGACUCUGGUGAAUCUGCGAAUUCUGCUGUAUAUCUC [C34U U43A U48C] | 0.04
UAACAGGGGGCCACAGCAGAAGCGUUCACGUCGUAGCCCCUGUCAGACUCUGGUGAAUCCGCGAAUUCCGCUGUACAUCUC [C34U U48C U60C U69C U76C] | 0.09
UAACAGGGGGCCACAGCAGAAGCGUUCACGUCGUAGCCCCUGUCAGAUCCUGGUGUAUCUGCGGAUUCUGCUGUAUAUCUC [C34U U49C A56U A64G] | 0.11
UAACAGGGGGCCACAGCAGAAGCGUUCACGUCGUAGCCCCUGUCAGAUUCAGGUGAAUCUGCGAAUUCUGCUGUGUACCUC [C34U U51A A75G U78C] | 0.14
UAACAGGGGGCCACAGCAGAAGCGUUCACGUCGUAGCCCCUGUCAGAUUCUGGCGAGUCUGCGAAUUCUGCUGUAUAUCUC [C34U U54C A57G] | 0.18
UAACAGGGGGCCACAGCAGAAGCGUUCACGUCGCCGCCCCUGUCCGACUCUGGUGAAUCUGCGAAUUCUGCUGUACAUCUC [A35C A45C U48C U76C] | 0.19
UAACAGGGGGCCACAGCAGAAGCGUUCACGUCGCCGCCCCUGUCGGAUUCUGGUGAAUCUCCGAAUUCUGCUGUAUAUCUC [A35C A45G G61C] | 0.19
UAACAGGGGGCCACAGCAGAAGCGUUCACGUCGCCGCCCCUGUCGGAUUCUGGUGAAUCUGCGAAUUCUGCUGUAUACCUC [A35C A45G U78C] | 0.19
UAACAGGGGGCCACAGCAGAAGCGUUCACGUCGCCGCCCCUGUCAGAUUCUGGUGGAUCUACGAAUUCUGCUGUAUAUCUC [A35C A56G G61A] | 0.4
UAACAGGGGGCCACAGCAGAAGCGUUCACGUCGCCGCACCCGUCAGAUUCUGGUGAAUCUGCGAGUUCAGGUGUAUAUCUC [A35C C38A U41C A65G U69A C71G] | 0.07
